From ChEMBL document CHEMBL4888484, “Replenishing the malaria drug discovery pipeline: Screening and hit evaluation of the MMV Hit Generation Library 1 (HGL1) against asexual blood stage Plasmodium falciparum ,using a nano luciferase reporter read-out” (2022) come the findings set out here.

Structures are written as SMILES. The whole screen tested about 150,000 compounds, of which about 540 (0.36%) showed an effect of 50% or more. The list shows a part of the results.

This assay concerns Plasmodium falciparum. Kind of assay: Primary screen in NF54 nanoGlo assay, in single point, at 2uM, 72h; a lower Z score goes with more inhibition. The format is functional, Erythrocyte. The conditions noted are these: timepoint 72 hour.
As for `O=C1CN(c2ccc(C(=O)N3CCC(c4nc5cc(F)ccc5[nH]4)CC3)cc2)C(=O)N1`, the “% Inhibition” value is -2% and the Z score was 0.34.

`CCC(=O)N1CCC(Nc2cccc(-c3nc(C4CC4)n[nH]3)c2)CC1`: the “% Inhibition” value came to 36% and the Z score is given as -5.25.

In the case of `Cc1cc(Br)c2c(c1)CN(c1cncc(C(N)=O)n1)CC2`, the “% Inhibition” value is 1% and the Z score is reported as -0.08.

Consider `Cc1[nH][nH]c(=O)c1Cc1nc(CCc2ccccc2)nn1-c1ccc(F)cc1`, for which the “% Inhibition” value is listed as -12% and the Z score is on record as 1.81.

Turning to `CN(C(=O)c1oc2ccccc2c1Cn1cccn1)C1(CN)CCC1`, the “% Inhibition” value was determined as 15% and the Z score is -1.85.

As to `Cc1cc(=O)n2c3ccccc3n(C)c2n1`, the “% Inhibition” value is listed as -2% and the Z score was 0.35.

For `CCNC(=O)c1cc(CNCC[C@H](C)c2ccc(C)o2)cc(NC(=O)c2ccccn2)c1`, the “% Inhibition” value is reported as -12% and the Z score worked out at 1.56.

As for `O=C(N[C@H]1CCN2C(=O)c3cc(/C=C/c4ccccc4)ccc3NC(=O)[C@H]12)c1cnccn1`, the “% Inhibition” value was determined as 0% and the Z score is recorded as 0.

On to `O=C1CC[C@@]2(CCCN(C(=O)c3cc(C4CC4)n[nH]3)C2)CN1Cc1cccnc1`, for which the “% Inhibition” value is on record as 0% and the Z score is 0.01.

On to `O=C(NC[C@H]1CCCN(Cc2ccco2)C1)c1ccc2nnnn2c1`, for which the “% Inhibition” value is listed as -4% and the Z score came to 0.84.

Regarding `Cn1nc2c(c1S(=O)(=O)N1CC[C@H](c3ncccn3)C1)CCCC2`, the “% Inhibition” value is recorded as -4% and the Z score is listed as 0.5.

As to `COCC(=O)N1CCOC(CN(CC2CCCO2)C(=O)c2ccc(OC)cc2)C1` (stereo not drawn), the “% Inhibition” value is listed as -8% and the Z score is recorded as 1.51.

For the compound `O=C(NC[C@@H]1CCCN(C(=O)C2CC=CC2)C1)C1CC=CC1`, the “% Inhibition” value is reported as 4% and the Z score is given as -0.49.

For the compound `CC(CCc1ccccc1F)C(=O)NC1CCCN(CC(N)=O)C1` (stereo not drawn), the “% Inhibition” value stood at 2% and the Z score is recorded as -0.19.

Turning to `COc1nccn2nc(-c3ccc(C)cc3)cc12`, the “% Inhibition” value was -11% and the Z score is listed as 1.25.

With `Cc1nn(C)c(C)c1CNC(=O)c1ccc(CN2CC[C@@](O)(c3ccccc3)[C@H]3CCCC[C@@H]32)[nH]c1=O`, the “% Inhibition” value is recorded as -10% and the Z score was 1.12.

For the compound `Cc1cc(CN2CCN(C(=O)Cn3cnc4ccccc4c3=O)CC2)on1`, the “% Inhibition” value is listed as -1% and the Z score worked out at 0.23.

In the case of `CC1CC(Nc2ncnc3ccccc23)CC(C)O1` (stereo not drawn), the “% Inhibition” value is reported as -2% and the Z score is 0.42.

Regarding `CC(C)C(C(=O)N(C)[C@@H]1COC[C@H]1O)c1cccnc1` (stereo partly drawn), the “% Inhibition” value is on record as -29% and the Z score was 3.42.

`O=C(C[C@H]1COCCN1C(=O)CCn1nnc2ccccc21)N1CCCC1`: the “% Inhibition” value worked out at 0% and the Z score was found to be 0.01.

Turning to `COCCNC(=O)CCN(CCOC)C(=O)c1cc(-c2cc(C)ccc2C)on1`, the “% Inhibition” value is given as -5% and the Z score worked out at 0.72.

As to `CN1CCCN(C(=O)C(=O)Nc2ccon2)CC1`, the “% Inhibition” value is -13% and the Z score is 2.18.

For `CC(C)N(CC1CCCCO1)CC(O)C(F)(F)F` (stereo not drawn), the “% Inhibition” value is listed as -3% and the Z score is given as 0.48.

Regarding `O=C(CC1CC2CCC1C2)NCCCn1cn[nH]c1=O` (stereo not drawn), the “% Inhibition” value worked out at 5% and the Z score is recorded as -0.62.

As for `Cc1ccc(-c2cc(C(=O)N3CCN(c4ccc(F)cc4)CC3)c(C)[nH]2)cc1`, the “% Inhibition” value was -14% and the Z score is recorded as 1.81.

With `COc1cc(=O)n(-c2ccccc2)cc1C(=O)NCCn1nccn1`, the “% Inhibition” value was -6% and the Z score stood at 0.95.

`CCC(CC)CN(CCC#N)C(=O)Nc1ccc(C(N)=O)c(Cl)c1`: the “% Inhibition” value is -5% and the Z score came to 0.55.

As for `CC1(C)CN(CCOc2cccc(S(C)(=O)=O)c2)c2ccccc2O1`, the “% Inhibition” value was -3% and the Z score amounted to 0.52.

For `CCN(C)C1(CNc2nc(OC)cc(OC)n2)CCCC1`, the “% Inhibition” value is -8% and the Z score turned out to be 1.17.

`Cn1c(C2COCCO2)nnc1N1CCOC(c2ccccc2F)C1` (stereo not drawn): the “% Inhibition” value came to 6% and the Z score is on record as -0.84.

Turning to `CC(=O)Nc1nc(C(=O)NCCc2ccc3c(c2)OCO3)cs1`, the “% Inhibition” value is given as -19% and the Z score amounted to 2.05.

In the case of `CC1CN(C(=O)CCCc2ccc3[nH]c(=O)[nH]c3c2)CC(C)N1` (stereo not drawn), the “% Inhibition” value is on record as -2% and the Z score is 0.34.

On to `CCc1nc(CN(CC(C)C)C(=O)NC(C)(C)C)[nH]c(=O)c1Cc1ccc(OC)cc1`, for which the “% Inhibition” value is listed as -18% and the Z score worked out at 1.78.

As to `CCNc1ccc(C#N)cc1NCCO`, the “% Inhibition” value was -16% and the Z score was found to be 2.34.

For the compound `CN(CC(=O)N(C)Cc1cnc(-c2ccccc2)s1)C(N)=O`, the “% Inhibition” value is reported as -2% and the Z score was 0.38.

Turning to `CC[C@H](NC(=O)CCC(F)(F)F)c1cc(C)ccn1`, the “% Inhibition” value is on record as -16% and the Z score is 2.02.

On to `Cc1cc(C)n([C@H]2[C@@H]3OC[C@@H](O3)[C@@H](NCCC(C)(C)C)[C@@H]2O)n1`, for which the “% Inhibition” value stood at 26% and the Z score is listed as -2.94.

Turning to `Cn1nc(C2CC2)nc1CC(=O)N1CCc2cc(F)c(F)cc21`, the “% Inhibition” value is listed as -5% and the Z score stood at 0.68.

On to `CC(C)c1ncc(Br)c(C(=O)O)n1`, for which the “% Inhibition” value was determined as 3% and the Z score is reported as -0.4.

Regarding `CN(CCc1ccccn1)C(=O)NCc1csc(N2CCOCC2)n1`, the “% Inhibition” value is reported as -12% and the Z score is listed as 1.28.

As to `CC(C)(C)c1ccc(C(=O)N2C3CCC2CC(Oc2cccnc2)C3)cc1` (stereo not drawn), the “% Inhibition” value is on record as -4% and the Z score is reported as 0.43.

With `O=C(c1ccc(COc2ccc3c(c2)CCC3)cc1)n1cc(Br)cn1`, the “% Inhibition” value was -3% and the Z score stood at 0.35.

As for `CN1CCCN(c2nc(C(F)(F)F)nc3ccsc23)CC1`, the “% Inhibition” value was -18% and the Z score worked out at 2.59.

Regarding `O=C(c1cnccn1)N1CCC[C@@H]1CS(=O)(=O)c1ccccc1`, the “% Inhibition” value was -9% and the Z score is reported as 1.48.

`Cc1cnn(C)c1S(=O)(=O)N[C@H]1C[C@H](c2cc(N3CCCC3)ncn2)C1`: the “% Inhibition” value is on record as -2% and the Z score came out at 0.39.

Consider `CCCN1C[C@@H]2CC[C@H]1CN(C(=O)c1ccc(-n3nc(C)cc3C)cc1)C2`, for which the “% Inhibition” value was -21% and the Z score came to 2.05.

As for `CCC1=C(c2ccc(C)cc2)S(=O)(=O)N=C1N1CCC(C(=O)NCCCc2ccccc2)CC1`, the “% Inhibition” value is -9% and the Z score worked out at 1.6.

Regarding `Cc1csc(CN(C)C(=O)Nc2cccc3c2CCC3)n1`, the “% Inhibition” value is given as -6% and the Z score is 1.18.

With `O=S(=O)(c1cncc(F)c1)N1CCC[C@H]1c1cccc(F)c1`, the “% Inhibition” value is -6% and the Z score amounted to 1.16.

Turning to `Cc1cc2c(=O)n(CCO[C@@H]3CCCCO3)cnc2cc1F`, the “% Inhibition” value was determined as 2% and the Z score was -0.23.

Take `O=C(Cn1cccn1)N1CCC(n2c(=O)[nH]c3ccccc3c2=O)CC1`: the “% Inhibition” value is reported as -3% and the Z score was determined as 0.61.

Regarding `CCCN1CCC[C@H]1c1nc(Cc2ccccc2)no1`, the “% Inhibition” value is -10% and the Z score is given as 1.31.

Take `CC1CCC2C(CCCN2C(=O)c2cnns2)C1` (stereo not drawn): the “% Inhibition” value was -13% and the Z score is on record as 1.67.

With `Cc1cnc(-n2cnnc2)c(-c2cccc(C(=O)N3CCC4(CCO4)CC3)c2)c1`, the “% Inhibition” value is reported as -4% and the Z score is 0.7.
